Measured values taken from PubChem BioAssay AID686979 (National Center for Advancing Translational Sciences (NCATS), 2013).
Screen size: about 420,000 compounds; about 50,000 (12%) were called active. Inconclusive means that the source gave no clear call. Such entries were picked first, then a sample of the others. Calls follow the shape of the dose curve; as a rule, active = well fitted inhibition curve with a large enough effect; inconclusive = small, poorly fitted or top-dose-only effect; inactive = flat fitted curve, though single readings scatter. Potencies of inconclusive entries are left out as doubtful fits.

Test: qHTS for Inhibitors of human tyrosyl-DNA phosphodiesterase 1 (TDP1): qHTS in cells in presence of CPT; also: nearly all actives have a fitted effect of over 55% in size
Details: chicken DT40 Tdp1-/-;hTDP1 cells + 20 nM CPT, ATP luminescence, 48 h; activity change, negative = growth inhibition: at 46.2 µM (top of the series) unless noted
Summary of the method: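 Chicken DT40 Tdp1-/- cells stably complemented with human TDP1 were seeded at 400 cells/well in medium containing 20 nM camptothecin, exposed to pin-transferred compounds, and grown at 37 °C for at least 48 hr. Viability was read as ATP luminescence.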
% is scaled to controls: 0 for no effect and ±100 for the full control effect; potency is read from the fitted curve at half-maximal effect; tags tell the direction and shape of the fitted curve.

| SMILES | activity change, negative = growth inhibition | Potency |
| --- | --- | --- |
| O=C(CSc1nnc(NC(=O)c2c(F)cccc2Cl)s1)Nc1ccccc1F | inactive: 5.19% | – |
| Fc1ccccc1-c1nc(NCC2CC2)nc2ccsc12 | – | inconclusive [inhibitor, single point] |
| CC(C)C(=O)N1CCC2(CC1)Oc1ccc(F)cc1C(=O)C21CC(c2ccccc2)=NO1 (stereo not drawn) | – | inconclusive [inhibitor, single point] |
| Cc1ccc(CNC(=O)c2c(C)cc(=O)oc2C)cc1 | – | inconclusive [inhibitor, partial curve] |
| CSCCC(NS(=O)(=O)c1ccc(Br)cc1)C(=O)OCC(=O)NC1CC1 (stereo not drawn) | inactive: 5.75% | – |
| CCOc1cccc(C(=O)Nc2cccc(-c3nnc(-c4ccc(C)cc4)o3)c2)c1 | – | active: 18.4 µM |
| Cc1ccccc1Nc1ncc(C#N)c(N)n1 | inactive: 4.37% | – |
| COc1ccc(NC(=S)NC(NC(=O)c2cccc(C)c2)C(Cl)(Cl)Cl)c([N+](=O)[O-])c1 (stereo not drawn) | – | inconclusive [inhibitor, single point] |
| CCc1ccc2c(c1)cc(CN(C(=S)Nc1cccc(C)c1)C1CC1)c1nnnn12 | – | inconclusive [inhibitor, single point] |
| CCSc1nnc(NC(=O)CSc2nccn2-c2cccc(C)c2C)s1 | – | inconclusive [inhibitor, single point] |
| CCOC(=O)CNC(=O)C1(/C=C/c2ccccc2)CC(=O)N1c1ccc(C)cc1 (stereo not drawn) | – | inconclusive [inhibitor, single point] |
| CCc1c(C)sc2c1CCN(C(=O)Nc1cc(C)cc(C)c1)C2c1ccccc1 (stereo not drawn) | – | active: 3.66 µM |
| CC(C)Cc1ccc(C(C)C(=N)N)cc1 (stereo not drawn) | – | active: 7.31 µM |
| Cc1ccc(S(=O)(=O)N2[C@@H](Cc3ccccc3)CO[C@H]2CC(=O)OCc2ccccc2)cc1 | – | inconclusive [inhibitor, single point] |
| O=C(NCc1ccccc1)C(c1ccncc1)n1c(=O)c(-c2cc3ccccc3[nH]2)nc2ccccc21 (stereo not drawn) | – | inconclusive [inhibitor, single point] |
| Cc1ccc(C(C[N+](=O)[O-])c2c(-c3ccccc3O)[nH][nH]c2=O)cc1 (stereo not drawn) | – | active: 3.26 µM |
| COc1ccc(C(NC(=O)C(C)C)c2c(O)ccc3ccccc23)cc1 (stereo not drawn) | – | inconclusive [inhibitor, single point] |
| CCCc1[nH]n(-c2ccc(F)cc2)c(=O)c1C=NCC1CCCO1 (stereo not drawn) | inactive: 10.3% | – |
| CC(Nc1ccc2c(c1)OCCO2)C(=O)N1c2ccccc2CC1C (stereo not drawn) | inactive: -14.9% | – |
| COc1cccc(N2CCN(CC(=O)Nc3ccccc3C(=O)NCc3ccccc3)CC2)c1 | – | inconclusive [inhibitor, single point] |
| CCOC(=O)C(c1nc2ccccc2[nH]1)n1c(-c2ccccn2)nc2ccccc21 (stereo not drawn) | – | inconclusive [inhibitor, single point] |
| O=C(NNc1cccc(Cl)n1)C(F)(F)F | inactive: -20.2% | – |
| COCCCNC(=O)CSc1nc2cc3c(cc2c(=O)n1CCCCCC(=O)NCc1ccc2c(c1)OCO2)OCO3 | inactive: 3.09% | – |
| N#Cc1cc(C(=O)c2ccccc2O)cn(-c2ccc(Cl)cc2)c1=O | – | inconclusive [inhibitor, single point] |
| COc1ccc(C)cc1N(CC(=O)N1CCCCCC1)S(=O)(=O)c1ccc(C)cc1 | – | inconclusive [inhibitor, single point] |

| SMILES | activity change, negative = growth inhibition | Potency |
| --- | --- | --- |
| Cc1nc(NC(=O)c2c(-c3ccccc3)c(-c3ccccc3)nn(C)c2=O)sc1C | – | active: 0.461 µM |
| COc1ccc(OCC2NCCc3cc(OC)c(OC)cc32)cc1 (stereo not drawn) | – | inconclusive [inhibitor, single point] |
| Cn1c(Cn2c3ccccc3c3ccccc32)n[nH]c1=S | inactive: -3.62% | – |
| CCn1c(=O)c([N+](=O)[O-])c(NCc2ccco2)c2ccccc21 | inactive: -2.35% | – |
| Cc1ccc(S(=O)(=O)N(C)C)cc1-n1c(SCC(=O)Nc2ccc(F)c(F)c2F)nc2ccccc2c1=O | – | active: 14.6 µM |
| O=C1/C(=C\c2ccco2)SC(=S)N1c1ccccc1 | inactive: 5.36% | – |
| CSc1ccccc1C(=O)NCc1ccccc1C | inactive: -14.4% | – |
| CS(=O)(=O)N(CC(=O)N/N=C/c1cccs1)c1cccc(Cl)c1Cl | inactive: -11.9% | – |
| COc1ccc(C)cc1NC(=O)COC(=O)Cc1ccc(-c2ccccc2)cc1 | – | inconclusive [inhibitor, partial curve, poor fit] |
| COc1ccc(Cl)cc1CN1C(=O)NC2(CCCCCC2)C1=O | – | inconclusive [inhibitor, single point] |
| O=C(COc1ccc(Cl)cc1Cl)N1CCN(c2ccccn2)CC1 | – | inconclusive [inhibitor, partial curve, poor fit] |
| Cc1ccccc1N(C(=O)c1snc(C(N)=O)c1N)C(C(=O)NCC1CCCO1)c1ccc(F)cc1 (stereo not drawn) | – | active: 14.6 µM |
| COc1ccc(NC(=O)Nc2nccs2)cc1 | – | active: 13 µM |
| CCOc1ccc(NS(=O)(=O)c2ccc3c(c2)N(C(C)=O)CCS3)cc1 | – | inconclusive [inhibitor, single point] |
| CCc1cc(=S)n2c([nH]c3ccccc32)c1C#N | – | active: 16.4 µM |
| CCOC(=O)C(Cc1ccccc1)NC(=O)CCc1c(C)nc2ncnn2c1C (stereo not drawn) | – | inconclusive [inhibitor, full curve, poor fit] |
| CCOc1cc(CNc2ccc(N3CCCC3)cc2)cc(Cl)c1OC | – | active: 2.91 µM |
| CS(=O)(=O)c1ccc(C(=O)OCC(=O)NC23CC4CC(CC(C4)C2)C3)cc1[N+](=O)[O-] | – | inconclusive [inhibitor, single point] |
| COc1ccc(Br)cc1/C=C/C(=O)NC(=S)Nc1ccc(CN2CCOCC2)cc1 | – | active: 16.4 µM |
| CCCCCCn1c(SCCC)nc2c1c(=O)[nH]c(=O)n2C | inactive: -22.8% | – |
| COc1cc2ccccc2cc1C(=O)NC1CCCC1 | – | inconclusive [inhibitor, single point] |
| Cc1cccc(NC(=O)c2sc3nc4c(cc3c2N)CN(C(C)C)CC4)c1 | – | active: 20.6 µM |
| CCc1ccc(S(=O)(=O)Nc2ccc3[nH]c(=O)sc3c2)cc1 | inconclusive: -36.4% [inhibitor] | – |
| N#Cc1ccccc1COC(=O)CCC(=O)c1cccs1 | inactive: -15.4% | – |
| CCN1CCCC1CNC(=O)c1ccc2c(c1)NC(=O)/C(=C\c1ccccc1Cl)S2 (stereo not drawn) | – | inconclusive [inhibitor, single point] |

| SMILES | activity change, negative = growth inhibition | Potency |
| --- | --- | --- |
| Cc1ccc2cc(C3C(C#N)=C(N)Oc4c3ccc3cccnc43)c(=O)[nH]c2c1 (stereo not drawn) | – | inconclusive [inhibitor, single point] |
| Cc1ccc(C)c(-n2cc(CNC(C)Cn3cncn3)c(-c3ccccc3)n2)c1 (stereo not drawn) | – | inconclusive [inhibitor, single point] |
| Cc1nn(-c2ccccc2)c(Cl)c1/C=N/Nc1nc2ccccc2[nH]1 | – | inconclusive [inhibitor, partial curve] |
| O=c1oc2ccc3ccccc3c2cc1-c1nnc(-c2ccccc2)o1 | – | inconclusive [inhibitor, single point] |
| COc1ccc(-c2cc(C(=O)N3CCCCC3)c3ccccc3n2)cc1OC | – | inconclusive [inhibitor, single point] |
| N#Cc1ccc(CC(C(=O)O)N2Cc3ccccc3C2=O)cc1 (stereo not drawn) | inactive: -7.09% | – |
| CC(C)(C)c1ccc(/C=N/Nc2cccc(C(=O)O)c2)cc1 | inactive: -5.29% | – |
| Cc1nc2ccccc2c(=O)n1/N=C/c1ccc(N(C)C)cc1 | inactive: -0.807% | – |
| Cc1cccc(N2CCN(C(=O)c3[nH]c(C(F)(F)F)nc3-c3ccccc3)CC2)c1C | – | active: 1.3 µM |
| O=C(CSc1nc(-c2ccccc2)c(-c2ccccc2)o1)Nc1nncs1 | inconclusive: -33.1% [inhibitor] | – |
| COc1ccc(NS(=O)(=O)c2cccc(C(=O)NCC(c3ccccc3OC)N3CCCC3)c2)cc1 (stereo not drawn) | – | inconclusive [inhibitor, single point] |
| Cc1ccc(-c2nnn(CC(=O)N(Cc3ccccc3)C(C(=O)NC(C)(C)C)c3ccncc3)n2)o1 (stereo not drawn) | inactive: 2% | – |
| COc1cc(C2c3cc4c(cc3CC3COC(=O)N32)OCO4)cc(OC)c1OC (stereo not drawn) | – | active: 0.82 µM |
| CC(C)(CO)NCc1c(OCc2ccc(Cl)cc2)ccc2ccccc12 | – | inconclusive [inhibitor, single point] |
| CN(C)S(=O)(=O)c1ccc(NC(=O)COC(=O)c2n[nH]c3ccccc23)cc1 | – | active: 14.6 µM |
| CC1=C(C(=O)OC2CCCCCC2)C(c2cccc(F)c2F)CC(=O)N1 (stereo not drawn) | – | inconclusive [inhibitor, single point] |
| O=C1NC(c2ccco2)Nc2sc3c(c21)CCN(Cc1ccccc1)C3 (stereo not drawn) | – | active: 23.1 µM |
| COc1ccc([C@H]2C[C@H](n3cc(C4CC4)nn3)[C@@H](O)CN2CC2CCCCC2)cc1 | – | inconclusive [inhibitor, single point] |
| Cc1nc(SCc2ccc(Br)cc2)[nH]c(=O)c1C | inconclusive: -31.2% [inhibitor] | – |
| COc1ccccc1NC(=O)Nc1cnccn1 | inactive: -9.47% | – |
| CS(=O)(=O)Nc1ccc(-c2ccc3nccn3c2)cc1 | – | inconclusive [inhibitor, single point] |
| CCC1CCCCN1C(=O)CSc1nc(-c2ccc(OC)c(OC)c2)cc(C(F)(F)F)n1 (stereo not drawn) | – | inconclusive [inhibitor, single point] |
| O=C(CCN1C(=O)/C(=C/c2ccc3c(c2)OCO3)SC1=S)Nc1ccccc1 | – | inconclusive [inhibitor, single point] |
